# Experimental data from the supplement of paper PMC8728848.
# This is one part of the list.
# B1: Surfactant Protein D (Human); Neck + Carbohydrate Recognition Domain (NCRD) (Homo sapiens) (protein)
# chain: MLLFLLSALVLLTQPLGYLEAEMKTYSHRTMPSACTLVMCSSVESGLPGRDRDGREGPRGEKGDPGLPGAAGQAGMPGQAGPVGPKGDNGSVGEPGPKGDTGPSGPPGPPGVPGPAGREGALGKQGNIGPQGKPGPKGEAGPKGEVGAPGMQGSAGARGLAGPKGERGVPGERGVPGNTGAAGSAGAMGPQGSPGARGPPGLKGDKGIPGDKGAKGESGLPDVASLRQQVEALQGQVQHLQAAFSQYKKVELFPNGQSVGEKIFKTAQFVKPFTEAQLLCTQAGGQLASPRSAAENAALQQLVVAKNEAAFLSMTDSKTEGKFTYPTGESLVYSNWAPGEPNDDGGSEDCVEIFTNGKWNDRACGEKRLVVCEF
# How the values were obtained:
# Assay in all cases: glycan array binding signal (z-score within array); higher = stronger binding
# Conditions in all cases: glycan notation: IUPAC condensed, linker removed
# [1] = target: Fuc(a1-3)[GalNAc(b1-4)]GlcNAc
# How it was run: (§1)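 The Consortium for Functional Glycomics database supplied 3228 glycan arrays, of which those lacking an available protein sequence were dropped. The binding signal, a within-array Z-score, was averaged across arrays of the same protein sequence and across linkers. Negative scores can be read as non-binding.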
# [2] = target: Fuc(a1-4)GlcNAc
# How it was run: as §1
# [3] = target: Fuc(b1-3)GlcNAc
# How it was run: as §1
# [4] = target: Gal(a1-2)Gal
# How it was run: as §1
# [5] = target: Gal(a1-3)Gal
# How it was run: as §1
# [6] = target: Gal(a1-3)Gal(b1-3)GlcNAc
# How it was run: as §1
# [7] = target: Gal(a1-3)Gal(b1-4)Glc
# How it was run: as §1
# [8] = target: Gal(a1-3)Gal(b1-4)GlcNAc
# How it was run: as §1
# [9] = target: Gal(a1-3)Gal(b1-4)[Fuc(a1-3)]GlcNAc
# How it was run: as §1
# [10] = target: Gal(a1-3)GalNAc
# How it was run: as §1
# [11] = target: Gal(a1-3)[Gal(a1-4)]Gal(b1-4)GlcNAc
# How it was run: as §1
# [12] = target: Gal(a1-4)Gal(b1-4)Glc
# How it was run: as §1
# [13] = target: Gal(a1-4)Gal(b1-4)GlcNAc
# How it was run: as §1
# [14] = target: Gal(a1-4)GlcNAc
# How it was run: as §1
# [15] = target: Gal(a1-6)Glc
# How it was run: as §1
# [16] = target: Gal(b1-2)Gal
# How it was run: as §1
# [17] = target: Gal(b1-3)Gal
# How it was run: as §1
# [18] = target: Gal(b1-3)Gal(b1-4)GlcNAc
# How it was run: as §1
# [19] = target: Gal(b1-3)GalNAc
# How it was run: as §1
# [20] = target: Gal(b1-3)GalNAc(b1-3)Gal(a1-4)Gal(b1-4)Glc
# How it was run: as §1
# [21] = target: Gal(b1-3)GalNAc(b1-4)Gal(b1-4)Glc
# How it was run: as §1
# [22] = target: Gal(b1-3)GalNAc(b1-4)[Neu5Ac(a2-3)]Gal(b1-4)Glc
# How it was run: as §1
# [23] = target: Gal(b1-3)GlcNAc
# How it was run: as §1
# [24] = target: Gal(b1-3)GlcNAc(b1-2)Man(a1-3)[Gal(b1-3)GlcNAc(b1-2)Man(a1-6)]Man(b1-4)GlcNAc(b1-4)GlcNAc
# How it was run: as §1
# [25] = target: Gal(b1-3)GlcNAc(b1-3)Gal(b1-3)GlcNAc
# How it was run: as §1
# [26] = target: Gal(b1-3)GlcNAc(b1-3)Gal(b1-4)Glc
# How it was run: as §1
# [27] = target: Gal(b1-3)GlcNAc(b1-3)Gal(b1-4)GlcNAc
# How it was run: as §1
# [28] = target: Gal(b1-3)[Fuc(a1-4)]GlcNAc
# How it was run: as §1
# [29] = target: Gal(b1-3)[Fuc(a1-4)]GlcNAc(b1-3)Gal(b1-3)[Fuc(a1-4)]GlcNAc
# How it was run: as §1
# [30] = target: Gal(b1-3)[Fuc(a1-4)]GlcNAc(b1-3)Gal(b1-4)GlcNAc
# How it was run: as §1
# [31] = target: Gal(b1-3)[Fuc(a1-4)]GlcNAc(b1-3)Gal(b1-4)[Fuc(a1-3)]GlcNAc
# How it was run: as §1
# [32] = target: Gal(b1-3)[GlcNAc(b1-6)]GalNAc
# How it was run: as §1
# [33] = target: Gal(b1-3)[Neu5Ac(a2-6)]GalNAc
# How it was run: as §1
# [34] = target: Gal(b1-3)[Neu5Ac(a2-6)]GlcNAc(b1-6)Gal(b1-4)Glc
# How it was run: as §1
# [35] = target: Gal(b1-3)[Neu5Ac(b2-6)]GalNAc
# How it was run: as §1
# [36] = target: Gal(b1-4)GalNAc(a1-3)[Fuc(a1-2)]Gal(b1-4)GlcNAc
# How it was run: as §1
# [37] = target: Gal(b1-4)GalNAc(b1-3)[Fuc(a1-2)]Gal(b1-4)GlcNAc
# How it was run: as §1
# [38] = target: Gal(b1-4)Glc
# How it was run: as §1
# [39] = target: Gal(b1-4)Glc6S
# How it was run: as §1
# [40] = target: Gal(b1-4)GlcNAc
# How it was run: as §1
# [41] = target: Gal(b1-4)GlcNAc(a1-6)Gal(b1-4)GlcNAc
# How it was run: as §1
# [42] = target: Gal(b1-4)GlcNAc(b1-2)Man(a1-3)[Gal(b1-4)GlcNAc(b1-2)Man(a1-6)]Man(b1-4)GlcNAc(b1-4)GlcNAc
# How it was run: as §1
# [43] = target: Gal(b1-4)GlcNAc(b1-3)Gal(b1-3)GlcNAc
# How it was run: as §1
# [44] = target: Gal(b1-4)GlcNAc(b1-3)Gal(b1-4)Glc
# How it was run: as §1
# [45] = target: Gal(b1-4)GlcNAc(b1-3)Gal(b1-4)GlcNAc
# How it was run: as §1
binder,measurement,setting,value
B1,glycan array binding signal (z-score),[1],-0.138
same,glycan array binding signal (z-score),[2],-0.052
same,glycan array binding signal (z-score),[3],-0.183
same,glycan array binding signal (z-score),[4],-0.19
same,glycan array binding signal (z-score),[5],-0.227
same,glycan array binding signal (z-score),[6],-0.269
same,glycan array binding signal (z-score),[7],-0.229
same,glycan array binding signal (z-score),[8],-0.263
same,glycan array binding signal (z-score),[9],-0.206
same,glycan array binding signal (z-score),[10],-0.186
same,glycan array binding signal (z-score),[11],-0.269
same,glycan array binding signal (z-score),[12],-0.004
same,glycan array binding signal (z-score),[13],-0.228
same,glycan array binding signal (z-score),[14],-0.21
same,glycan array binding signal (z-score),[15],-0.083
same,glycan array binding signal (z-score),[16],-0.174
same,glycan array binding signal (z-score),[17],-0.25
same,glycan array binding signal (z-score),[18],-0.274
same,glycan array binding signal (z-score),[19],-0.258
same,glycan array binding signal (z-score),[20],-0.132
same,glycan array binding signal (z-score),[21],-0.244
same,glycan array binding signal (z-score),[22],-0.27
same,glycan array binding signal (z-score),[23],-0.263
same,glycan array binding signal (z-score),[24],-0.275
same,glycan array binding signal (z-score),[25],-0.234
same,glycan array binding signal (z-score),[26],-0.271
same,glycan array binding signal (z-score),[27],-0.239
same,glycan array binding signal (z-score),[28],-0.233
same,glycan array binding signal (z-score),[29],-0.19
same,glycan array binding signal (z-score),[30],-0.257
same,glycan array binding signal (z-score),[31],-0.053
same,glycan array binding signal (z-score),[32],-0.262
same,glycan array binding signal (z-score),[33],-0.281
same,glycan array binding signal (z-score),[34],-0.262
same,glycan array binding signal (z-score),[35],-0.147
same,glycan array binding signal (z-score),[36],-0.188
same,glycan array binding signal (z-score),[37],-0.254
same,glycan array binding signal (z-score),[38],-0.24
same,glycan array binding signal (z-score),[39],-0.207
same,glycan array binding signal (z-score),[40],-0.205
same,glycan array binding signal (z-score),[41],-0.267
same,glycan array binding signal (z-score),[42],-0.253
same,glycan array binding signal (z-score),[43],-0.076
same,glycan array binding signal (z-score),[44],-0.273
same,glycan array binding signal (z-score),[45],-0.276
